Among all 94,000 compounds or so, about 4,000 (4.3%) were called active. The shares of active, inactive and inconclusive entries below differ from those in the screen. The call rests on the fitted dose curve; in most records, active means well fitted inhibition curve with a large enough effect; inconclusive means small, poorly fitted or top-dose-only effect; inactive means no such curve, though single readings can be large or run the other way. Potencies beside an inconclusive call are fits to weak or partial responses and may not hold up.
experiment: Cytotoxic Profiling in NIH 3T3 Cell Line of Diverse Libraries Using Quantitative High-Throughput Screening; conditions: NIH 3T3 viability, CellTiter-Glo ATP luminescence, 48-72 h; series mostly up to 96.7 µM; further: nearly all actives have a fitted effect of over 55% in size
How it was run: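 Mouse fibroblast NIH 3T3 cells, 400 per well, received compound via pintool and were incubated for 48 or 72 hr prior to CellTiter-Glo ATP luminescence measurement.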
Potency means the concentration at half of the fitted maximal effect; tags describe the fitted curve by direction and shape.

SMILES | Potency
Cc1nc(-c2ccc(F)cc2)cc([C@H]2CN3CC[C@H]2C[C@@H]3CNC(=O)c2ccco2)n1 | active: 100 µM
O=C(O)CN1CCC[C@]2(C(=O)O)CN(Cc3ccncc3)CC[C@@H]12 | inactive
CCNC(=O)NC[C@H]1C[C@@H]2CCN1C[C@@H]2c1cc(C2CCCCC2)nn1C | inconclusive: 126 µM [inhibitor, single point]
FC(F)(F)CN1C2CCC1CN(c1nnc(Cl)c3ccccc13)C2 | inconclusive: 39.8 µM [inhibitor, partial curve]
COc1cc2c(cc1CCc1ccccc1)N(C(=O)C1CCC(C)CC1)CC21CCN(C(C)=O)CC1 (stereo not given) | active: 31.6 µM
CC(C)CCN1CCC2(CNS(=O)(=O)c3cccnc3O2)C1 (stereo not given) | inactive
Cc1cc(CN2CC3(C2)C(=O)Nc2ccccc23)no1 | inactive
COc1cc2c(cc1OCc1ccccc1)N(C(=O)C1CCC(C)CC1)CC21CCN(C)CC1 (stereo not given) | active: 20 µM
Cn1nc(-c2ccc3ccccc3c2)cc1[C@H]1CN2CC[C@H]1C[C@@H]2COC(=O)Nc1ccccc1 | active: 17.8 µM
CC(C)(CC(=O)O)CC(=O)N1C[C@@H]2C[C@H](C1)c1ccc(-c3cccc(C#N)c3)c(=O)n1C2 | inactive
Cc1noc(C)c1Cc1ccc(C(=O)N2[C@H]3CC[C@@H]2c2cnc(-c4ccccc4)nc2C3)o1 | inconclusive: 11.2 µM [inhibitor, partial curve, poor fit]
O=C(Cc1ccc(Cl)cc1)N1Cc2ccccc2CC2(CCCN2CC2CCNC2)C1 (stereo not given) | active: 15.8 µM
COc1ccc(-c2cn(C[C@H]3CC4CCN3C[C@@H]4C(=O)NC3CCCCC3)nn2)cc1 (stereo not given in full) | inconclusive: 100 µM [inhibitor, partial curve]
COc1cc2c(cc1OCC1CC1)NC(=O)C21CCN(c2ccnc(C)n2)CC1 | inconclusive: 63.1 µM [inhibitor, partial curve, poor fit]
Cc1nc(-c2ccccc2Br)cc([C@H]2CN3CC[C@H]2C[C@@H]3CNC(=O)c2cccs2)n1 | inconclusive: 44.7 µM [inhibitor, partial curve, poor fit]
CCCNC(=O)OC[C@H]1C[C@@H]2CCN1C[C@@H]2c1cc(-c2ccc3ccccc3c2)nn1C | active: 31.6 µM
C=CCN(C)C[C@H]1CN2CC[C@H]1C[C@@H]2CNC(=O)Nc1cccc(SC)c1 | active: 100 µM
COc1ccccc1-c1cc([C@H]2CN3CC[C@H]2C[C@@H]3COC(=O)NC2CCCCC2)nc(C)n1 | inconclusive: 8.91 µM [inhibitor, full curve, poor fit]
CCCS(=O)(=O)NC[C@H]1C[C@@H]2CCN1C[C@@H]2c1cc(C(CC)CC)nc(-c2ccncc2)n1 | inconclusive: 79.4 µM [inhibitor, partial curve, poor fit]
Cn1nc(-c2ccc3ccccc3c2)cc1[C@H]1CN2CC[C@H]1C[C@@H]2CNC(=O)c1cccs1 | active: 25.1 µM

SMILES | Potency
COc1cc2c(cc1Oc1ccccc1)NC(=O)C21CCN(C(=O)c2scnc2C)CC1 | inconclusive: 44.7 µM [inhibitor, partial curve, poor fit]
O=C1NCCCCCCN(Cc2ccncc2)[C@@H]2CN(C(=O)COc3ccc(F)cc3)CC[C@@H]12 | active: 35.5 µM
CCC(CC)c1cc([C@H]2CN3CC[C@H]2C[C@@H]3CNC(=O)COC)nc(-c2ccncc2)n1 | inconclusive: 70.8 µM [inhibitor, partial curve]
COc1cc2c(cc1CCc1ccccc1)N(C(=O)c1ccnn1C)CC21CCN(C(C)=O)CC1 | inconclusive: 89.1 µM [inhibitor, partial curve, poor fit]
c1ccc(CN2C[C@H]3CCNC[C@H]32)cc1 | inconclusive: 50.1 µM [inhibitor, partial curve, poor fit]
COc1ccc(NC(=O)N2[C@H]3CC[C@@H]2c2cnc(C)nc2C3)c(C)c1 | inactive
CN(Cc1ccccc1)Cc1cn(C[C@H]2C[C@@H]3CCN2C[C@@H]3C(=O)Nc2ccccc2)nn1 | inconclusive: 56.2 µM [inhibitor, partial curve, poor fit]
CCOC(=O)c1ccc(N2CC3CCC(C2)N3CC(F)(F)F)nn1 | inactive
Cn1nc(-c2ccc(F)cc2)cc1[C@H]1CN2CC[C@H]1C[C@@H]2CNC(=O)NCc1ccccc1 | inconclusive: 56.2 µM [inhibitor, partial curve, poor fit]
Cc1ccccc1-c1ccc2n(c1=O)C[C@H]1C[C@@H]2CN(S(=O)(=O)c2cccs2)C1 | inactive
O=C(Nc1ccc(=O)n2c1[C@@H]1C[C@@H](CN(S(=O)(=O)c3ccccc3)C1)C2)c1cncnc1 | inconclusive: 89.1 µM [inhibitor, partial curve, poor fit]
COc1cc2c(cc1OCc1ccccc1)NC(=O)C21CCN(C(=O)c2ccccc2)CC1 | inconclusive: 44.7 µM [inhibitor, partial curve, poor fit]
O=C(Nc1ccccc1)OC[C@H]1C[C@@H]2CCN1C[C@@H]2c1cc(C2CCCC2)nc(-c2ccncc2)n1 | active: 7.94 µM
CC(C)CN1CCNc2cc(-c3ccccc3)ncc2C1 | inconclusive: 100 µM [inhibitor, partial curve, poor fit]
O=C(NC[C@H]1C[C@@H]2CCN1C[C@@H]2CN1CCN(c2ncccn2)CC1)c1ccc(C(F)(F)F)cc1 | inactive
CN(C[C@H]1CN2CC[C@H]1C[C@@H]2CNC(=S)NCc1ccco1)c1ccccc1 | active: 28.2 µM
CCOC(=O)[C@H]1CN(C(=O)c2ccc(F)cc2)[C@]2(C)C(=O)Nc3ccccc3[C@H]12 | inconclusive: 17.8 µM [inhibitor, partial curve, poor fit]
COc1ccc(CNC[C@H]2C[C@@H]3CCN2C[C@@H]3c2cc(-c3ccc(F)cc3)nn2C)cc1 | active: 89.1 µM
COc1cc2c(cc1OCc1ccccc1)NC(=O)C21CCN(C(=O)C(C)C)CC1 | active: 14.1 µM
CC(=O)NC[C@H]1C[C@@H]2CCN1C[C@@H]2c1cc(-c2ccccc2)nc(C)n1 | inconclusive: 63.1 µM [inhibitor, partial curve, poor fit]
